Measurements from paper PMC4735476, “Dataset concerning GroEL chaperonin interaction with proteins” (Data in Brief, 2016).

Target: T1, GroEL chaperonin ( (purified from Escherichia …, UniProt P0A6F5))
T1 construct: GroEL chaperonin, purified from Escherichia coli cells (HB101 strain) after expression of the plasmid pGroE4
Assay: fluorescence polarisation; 30×10^-9 M denatured fluorescein-labeled pepsin titrated with GroEL in 20 mM Tris–HCl, pH 7.5, 10 mM MgCl2, 600 mM NaCl; apparent constant, counted on GroEL cavities
Conditions: both partners purified

Kd: 9.7 nM
B1: fluorescein-labeled pepsin from porcine gastric mucosa (enzyme, UniProt P00791 60-385, looked up)
chain: IGDEPLENYLDTEYFGTIGIGTPAQDFTVIFDTGSSNLWVPSVYCSSLACSDHNQFNPDDSSTFEATSQELSITYGTGSMTGILGYDTVQVGGISDTNQIFGLSETEPGSFLYYAPFDGILGLAYPSISASGATPVFDNLWDQGLVSQDLFSVYLSSNDDSGSVVLLGGIDSSYYTGSLNWVPVSVEGYWQITLDSITMDGETIACSGGCQAIVDTGTSLLTGPTSAIANIQSDIGASENSDGEMVISCSSIDSLPDIVFTINGVQYPLSPSAYILQDDDSCTSGFEGMDVPTSSGELWILGDVFIRQYYTVFDRANNKVGLAPVA
modifications: fluorescein label (fluorescein isothiocyanate), position not stated
notes: Pepsin from porcine gastric mucosa; also called denatured pepsin; source: bought: Sigma (USA), used without additional purification; labelled with fluorescein isothiocyanate, PD-10 and MonoQ
